In the supplement of paper PMC8728848:
The list shows a part of the results.

Key:
Test in all cases: glycan array binding signal (z-score within array); higher = stronger binding
Conditions in all cases: glycan notation: IUPAC condensed, linker removed
[1] = molecular target: Gal(b1-4)GlcNAc(b1-6)[Gal(b1-3)]GalNAc
Summary of the method: (§1)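 Glycan array data came from 3228 arrays in the Consortium for Functional Glycomics database, and only arrays with an available protein sequence were kept. Glycan names were put into IUPAC-condensed notation, and columns mapping to the same glycan were averaged. The binding signal is a within-array Z-score, averaged across arrays of one protein sequence run at different concentrations or buffers and across linkers. A negative Z-score can be read as non-binding.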

Gal3S(b1-3)GalNAc = molecular target: Gal3S(b1-3)GalNAc
Summary of the method: as §1

Gal3S(b1-3)GlcNAc = molecular target: Gal3S(b1-3)GlcNAc
Summary of the method: as §1

[2] = molecular target: Gal3S(b1-3)[Fuc(a1-4)]GlcNAc
Summary of the method: as §1

Gal3S(b1-4)Glc = molecular target: Gal3S(b1-4)Glc
Summary of the method: as §1

Gal3S(b1-4)Glc6S = molecular target: Gal3S(b1-4)Glc6S
Summary of the method: as §1

Gal3S(b1-4)GlcNAc = molecular target: Gal3S(b1-4)GlcNAc
Summary of the method: as §1

Gal4S(b1-4)GlcNAc = molecular target: Gal4S(b1-4)GlcNAc
Summary of the method: as §1

Gal6S(b1-4)Glc = molecular target: Gal6S(b1-4)Glc
Summary of the method: as §1

Gal6S(b1-4)Glc6S = molecular target: Gal6S(b1-4)Glc6S
Summary of the method: as §1

GalNAc(a1-3)Gal = molecular target: GalNAc(a1-3)Gal
Summary of the method: as §1

GalNAc(a1-3)GalNAc = molecular target: GalNAc(a1-3)GalNAc
Summary of the method: as §1

GalNAc(b1-3)GalNAc = molecular target: GalNAc(b1-3)GalNAc
Summary of the method: as §1

GalNAc(b1-4)GlcNAc = molecular target: GalNAc(b1-4)GlcNAc
Summary of the method: as §1

Glc(a1-4)Glc = molecular target: Glc(a1-4)Glc
Summary of the method: as §1

Glc(b1-4)Glc = molecular target: Glc(b1-4)Glc
Summary of the method: as §1

Glc(b1-6)Glc = molecular target: Glc(b1-6)Glc
Summary of the method: as §1

[3] = molecular target: GlcNAc(b1-2)Gal(b1-3)GalNAc
Summary of the method: as §1

GlcNAc(b1-3)Gal = molecular target: GlcNAc(b1-3)Gal
Summary of the method: as §1

[4] = molecular target: GlcNAc(b1-3)Gal(b1-3)GalNAc
Summary of the method: as §1

GlcNAc(b1-3)Gal(b1-4)Glc = molecular target: GlcNAc(b1-3)Gal(b1-4)Glc
Summary of the method: as §1

[5] = molecular target: GlcNAc(b1-3)Gal(b1-4)GlcNAc
Summary of the method: as §1

[6] = molecular target: GlcNAc(b1-3)[GlcNAc(b1-6)]GalNAc
Summary of the method: as §1

[7] = molecular target: GlcNAc(b1-3)[GlcNAc(b1-6)]GlcNAc(b1-4)GlcNAc
Summary of the method: as §1

[8] = molecular target: GlcNAc(b1-4)GlcNAc(b1-4)GlcNAc
Summary of the method: as §1

[9] = molecular target: GlcNAc(b1-4)[GlcNAc(b1-6)]GalNAc
Summary of the method: as §1

GlcNAc(b1-6)GalNAc = molecular target: GlcNAc(b1-6)GalNAc
Summary of the method: as §1

Kdn(a2-3)Gal(b1-3)GlcNAc = molecular target: Kdn(a2-3)Gal(b1-3)GlcNAc
Summary of the method: as §1

Kdn(a2-3)Gal(b1-4)GlcNAc = molecular target: Kdn(a2-3)Gal(b1-4)GlcNAc
Summary of the method: as §1

[10] = molecular target: Man(a1-2)Man(a1-2)Man(a1-3)Man
Summary of the method: as §1

[11] = molecular target: Man(a1-2)Man(a1-2)Man(a1-6)[Man(a1-3)]Man
Summary of the method: as §1

Man(a1-2)Man(a1-3)Man = molecular target: Man(a1-2)Man(a1-3)Man
Summary of the method: as §1

[12] = molecular target: Man(a1-2)Man(a1-3)[Man(a1-2)Man(a1-6)]Man
Summary of the method: as §1

[13] = molecular target: Man(a1-2)Man(a1-3)[Man(a1-2)Man(a1-6)]Man(a1-6)[Man(a1-2)Man(a1-2)Man(a1-3)]Man(b1-4)GlcNAc(b1-4)GlcNAc
Summary of the method: as §1

[14] = molecular target: Man(a1-2)Man(a1-3)[Man(a1-2)Man(a1-6)]Man(a1-6)[Man(a1-3)[Man(a1-6)]Man(a1-6)]Man(b1-4)GlcNAc(b1-4)GlcNAc
Summary of the method: as §1

[15] = molecular target: Man(a1-2)Man(a1-3)[Man(a1-6)]Man(a1-6)[Man(a1-2)Man(a1-3)]Man(b1-4)GlcNAc(b1-4)GlcNAc
Summary of the method: as §1

[16] = molecular target: Man(a1-2)Man(a1-6)[Man(a1-3)]Man(a1-6)[Man(a1-2)Man(a1-2)Man(a1-3)]Man(b1-4)GlcNAc(b1-4)GlcNAc
Summary of the method: as §1

Man(a1-3)[Man(a1-6)]Man = molecular target: Man(a1-3)[Man(a1-6)]Man
Summary of the method: as §1

[17] = molecular target: Man(a1-3)[Man(a1-6)]Man(a1-6)[Man(a1-3)]Man(b1-4)GlcNAc(b1-4)GlcNAc
Summary of the method: as §1

Neu5Ac(a2-3)Gal = molecular target: Neu5Ac(a2-3)Gal
Summary of the method: as §1

[18] = molecular target: Neu5Ac(a2-3)Gal(b1-3)GalNAc
Summary of the method: as §1

[19] = molecular target: Neu5Ac(a2-3)Gal(b1-3)GalNAc6S
Summary of the method: as §1

[20] = molecular target: Neu5Ac(a2-3)Gal(b1-3)GlcNAc
Summary of the method: as §1

[21] = molecular target: Neu5Ac(a2-3)Gal(b1-3)[Fuc(a1-4)]GlcNAc
Summary of the method: as §1

[22] = molecular target: Neu5Ac(a2-3)Gal(b1-3)[Neu5Ac(a2-3)Gal(b1-4)]GlcNAc
Summary of the method: as §1

[23] = molecular target: Neu5Ac(a2-3)Gal(b1-3)[Neu5Ac(a2-6)]GalNAc
Summary of the method: as §1

Neu5Ac(a2-3)Gal(b1-4)Glc = molecular target: Neu5Ac(a2-3)Gal(b1-4)Glc
Summary of the method: as §1

[24] = molecular target: Neu5Ac(a2-3)Gal(b1-4)GlcNAc
Summary of the method: as §1

[25] = molecular target: Neu5Ac(a2-3)Gal(b1-4)GlcNAc(b1-3)Gal(b1-4)GlcNAc
Summary of the method: as §1

[26] = molecular target: Neu5Ac(a2-3)Gal(b1-4)GlcNAc(b1-3)Gal(b1-4)GlcNAc(b1-3)Gal(b1-4)GlcNAc
Summary of the method: as §1

[27] = molecular target: Neu5Ac(a2-3)Gal(b1-4)GlcNAc6S
Summary of the method: as §1

[28] = molecular target: Neu5Ac(a2-3)Gal(b1-4)[Fuc(a1-3)]GlcNAc
Summary of the method: as §1

[29] = molecular target: Neu5Ac(a2-3)Gal(b1-4)[Fuc(a1-3)]GlcNAc(b1-3)Gal
Summary of the method: as §1

[30] = molecular target: Neu5Ac(a2-3)Gal(b1-4)[Fuc(a1-3)]GlcNAc(b1-3)Gal(b1-4)GlcNAc
Summary of the method: as §1

[31] = molecular target: Neu5Ac(a2-3)Gal(b1-4)[Fuc(a1-3)]GlcNAc(b1-3)Gal(b1-4)[Fuc(a1-3)]GlcNAc(b1-3)Gal(b1-4)[Fuc(a1-3)]GlcNAc
Summary of the method: as §1

[32] = molecular target: Neu5Ac(a2-3)Gal(b1-4)[Fuc(a1-3)]GlcNAc6S
Summary of the method: as §1

[33] = molecular target: Neu5Ac(a2-3)Gal6S(b1-4)GlcNAc
Summary of the method: as §1

Neu5Ac(a2-3)GalNAc = molecular target: Neu5Ac(a2-3)GalNAc
Summary of the method: as §1

[34] = molecular target: Neu5Ac(a2-3)[GalNAc(b1-4)]Gal(b1-4)Glc
Summary of the method: as §1

[35] = molecular target: Neu5Ac(a2-3)[GalNAc(b1-4)]Gal(b1-4)GlcNAc
Summary of the method: as §1

B1: RegIIIbeta (Mus musculus), P35230 (protein)
chain: MLPPTACSVMSWMLLSCLMLLSQVQGEDSLKNIPSARISCPKGSQAYGSYCYALFQIPQTWFDAELACQKRPGGHLVSVLNSAEASFLSSMVKRTGNSYQYTWIGLHDPTLGAEPNGGGWEWSNNDVMNYFNWERNPSTALDRAFCGSLSRASGFLKWRDMTCEVKLPYVCKFTG
glycan array binding signal (z-score) [1]: -0.101
glycan array binding signal (z-score) (Gal3S(b1-3)GalNAc): -0.124
glycan array binding signal (z-score) (Gal3S(b1-3)GlcNAc): -0.117
glycan array binding signal (z-score) [2]: -0.098
glycan array binding signal (z-score) (Gal3S(b1-4)Glc): -0.115
glycan array binding signal (z-score) (Gal3S(b1-4)Glc6S): -0.105
glycan array binding signal (z-score) (Gal3S(b1-4)GlcNAc): -0.11
glycan array binding signal (z-score) (Gal4S(b1-4)GlcNAc): 0.188
glycan array binding signal (z-score) (Gal6S(b1-4)Glc): -0.116
glycan array binding signal (z-score) (Gal6S(b1-4)Glc6S): -0.093
glycan array binding signal (z-score) (GalNAc(a1-3)Gal): -0.109
glycan array binding signal (z-score) (GalNAc(a1-3)GalNAc): -0.121
glycan array binding signal (z-score) (GalNAc(b1-3)GalNAc): -0.103
glycan array binding signal (z-score) (GalNAc(b1-4)GlcNAc): -0.106
glycan array binding signal (z-score) (Glc(a1-4)Glc): -0.107
glycan array binding signal (z-score) (Glc(b1-4)Glc): -0.117
glycan array binding signal (z-score) (Glc(b1-6)Glc): 0.031
glycan array binding signal (z-score) [3]: -0.117
glycan array binding signal (z-score) (GlcNAc(b1-3)Gal): -0.075
glycan array binding signal (z-score) [4]: -0.096
glycan array binding signal (z-score) (GlcNAc(b1-3)Gal(b1-4)Glc): -0.094
glycan array binding signal (z-score) [5]: -0.09
glycan array binding signal (z-score) [6]: -0.071
glycan array binding signal (z-score) [7]: -0.018
glycan array binding signal (z-score) [8]: -0.118
glycan array binding signal (z-score) [9]: -0.093
glycan array binding signal (z-score) (GlcNAc(b1-6)GalNAc): -0.125
glycan array binding signal (z-score) (Kdn(a2-3)Gal(b1-3)GlcNAc): -0.012
glycan array binding signal (z-score) (Kdn(a2-3)Gal(b1-4)GlcNAc): -0.018
glycan array binding signal (z-score) [10]: -0.023
glycan array binding signal (z-score) [11]: 0.002
glycan array binding signal (z-score) (Man(a1-2)Man(a1-3)Man): -0.056
glycan array binding signal (z-score) [12]: -0.011
glycan array binding signal (z-score) [13]: -0.045
glycan array binding signal (z-score) [14]: -0.092
glycan array binding signal (z-score) [15]: -0.058
glycan array binding signal (z-score) [16]: -0.044
glycan array binding signal (z-score) (Man(a1-3)[Man(a1-6)]Man): -0.112
glycan array binding signal (z-score) [17]: -0.123
glycan array binding signal (z-score) (Neu5Ac(a2-3)Gal): -0.124
glycan array binding signal (z-score) [18]: -0.117
glycan array binding signal (z-score) [19]: -0.107
glycan array binding signal (z-score) [20]: -0.094
glycan array binding signal (z-score) [21]: -0.103
glycan array binding signal (z-score) [22]: -0.036
glycan array binding signal (z-score) [23]: -0.116
glycan array binding signal (z-score) (Neu5Ac(a2-3)Gal(b1-4)Glc): -0.115
glycan array binding signal (z-score) [24]: -0.071
glycan array binding signal (z-score) [25]: -0.115
glycan array binding signal (z-score) [26]: -0.036
glycan array binding signal (z-score) [27]: -0.109
glycan array binding signal (z-score) [28]: -0.072
glycan array binding signal (z-score) [29]: -0.108
glycan array binding signal (z-score) [30]: -0.059
glycan array binding signal (z-score) [31]: 0.086
glycan array binding signal (z-score) [32]: -0.079
glycan array binding signal (z-score) [33]: -0.11
glycan array binding signal (z-score) (Neu5Ac(a2-3)GalNAc): -0.12
glycan array binding signal (z-score) [34]: -0.11
glycan array binding signal (z-score) [35]: -0.087
